According to article PMC12040169 (PLOS Biology, 2025):
Read-outs that look alike come from different tables or passages of the source. This is one part of the list.

Tested on: T1, C. trachomatis L2/434/Bu expressing GFP (CTL2-GFP)
T1 construct: L2/434/Bu GFP intracellular growth in HeLa cells
Parameters: species or system HeLa; C. trachomatis total inclusion area by high-content imaging, normalised to DMSO
Conditions: 28.5 h, 10 µM, inhibitor
Excerpt: In this process, we also complemented the assay described above with an imaging-based readout (Fig 1B). After measurements of bulk GFP and resorufin fluorescence, cells were fixed, stained with the DNA dye Hoechst, and imaged at a high-content imaging platform to detect chlamydial inclusions (GFP) and host cell nuclei (Hoechst). The total area and number of inclusions in individual wells and the number of nuclei then served as additional proxies for chlamydial growth and host cell viability. […] MICs were calculated as described above.

Compound | % of control remaining (total inclusion area) | % of control remaining
CC(N)c1cc2ccccc2o1 (stereo not shown) [CBK001492C] | 79.8998 | –
CN(C)[C@H]1CCC[C@@H]1C(=O)Nc1ccc(Cl)c(Cl)c1 [CBK003406] | 49.803 | –
CNC(=O)Oc1ccc(C2(C)SCCS2)cc1 [CBK023078] | 54.9106 | –
O=C(NNc1c(Cl)cccc1Cl)C(O)(c1ccccc1)c1ccccc1 [CBK262739] | 72.6297 | –
Clc1cccc(N2CCNCC2)n1 [CBK001379] | 95.708 | –
CCCCN1C(=O)C(O)(c2c(C)nn(CCC#N)c2N)c2ccccc21 (stereo not shown) [CBK306211] | 54.5997 | –
COc1ccc(CCn2nc(C(=O)O)c3ccccc32)cc1 [CBK093525] | 99.3841 | –
O=C(O)C(O)(c1ccccc1)c1cccs1 (stereo not shown) [CBK022808] | 106.752 | –
CCCN(CCc1cccnc1)C1Cc2cc(OC)c(OC)cc2C1 [CBK023935C] | 124.522 | –
COCCn1cc(C(=O)N2CCCC(CN(C)C)C2)c2ccccc21 (stereo not shown) [CBK281431] | – | 101.517
Cc1cccc(OP(=O)(O)Oc2cccc(C)c2C)c1C [CBK261316] | 109.788 | –
COc1cc(/C=N/O)ccc1Oc1ccc([N+](=O)[O-])cc1[N+](=O)[O-] [CBK261651] | 96.9801 | –
CC1CN(C(=O)Oc2ccccc2)C(C)CN1CCCC(c1ccc(F)cc1)c1ccc(F)cc1 (stereo not shown) [CBK024993C] | 36.6326 | –
CN(C)C(=O)OCCn1c(=O)oc2cc(Cl)ccc21 [CBK306455] | 60.2289 | –
O=C(O)c1nsnc1-c1cc([N+](=O)[O-])cc([N+](=O)[O-])c1O [CBK261584] | – | 96.4557
CCCCN1C(=O)C(O)(c2c(C)nn(CCO)c2N)c2ccccc21 (stereo not shown) [CBK304286] | 87.6401 | –
O=C(Nc1ccc(Cl)cc1)c1cccc(-n2cnnn2)c1 [CBK287791] | – | 112.746
CCN(CC)CCN(C)Cc1ccc2ccc3cccc4ccc1c2c34 [CBK261859] | 94.2496 | –
O=C(CC(c1ccccc1)c1c(O)c2ccccc2oc1=O)c1ccc(-c2ccc(Br)cc2)cc1 (stereo not shown) [CBK260877] | – | 97.4349
COc1cc(Cl)ccc1NC(=O)Oc1cccc2cnccc12 [CBK012882] | 107.274 | –
COc1cccc2c1OCCC2CNCCCc1ccccc1 (stereo not shown) [CBK007716] | 53.8099 | –
O=C(Nc1cc([N+](=O)[O-])ccc1O)c1cccc(C(=O)Nc2cc([N+](=O)[O-])ccc2O)c1 [CBK261168] | 104.42 | –
NC(=O)C1=CN([C@@H]2O[C@H](CO)[C@H](O)C2O)C2N=CN=C(N)C12 (stereo partly shown) [CBK201209] | 0.1944 | –

Compound | % of control remaining (total inclusion area) | % of control remaining
CN(C)C(=O)c1ccc(Cn2nc(C(=O)Nc3nccs3)c3ccccc32)cc1 [CBK047701] | 73.1617 | –
Cc1cc(Cl)c(OC(=O)NC2CCCCC2)cc1C [CBK022948] | 62.6701 | –
Cc1ccc(OP(=O)(NCCN2CCOCC2)Oc2ccc(C)cc2)cc1 [CBK261802] | 114.485 | –
NC(=O)Cn1cc(C(=O)COc2ccccc2)c2ccccc21 [CBK267650] | 99.5618 | –
COC(=O)c1cccc2c3c(n(Cc4ccccc4)c12)CCCC3=O [CBK036304] | 52.4228 | –
N#CC(CCCN1CCC(O)(c2ccccc2)CC1)(c1ccccc1)c1ccccc1 [CBK002145] | – | 61.1385
Cn1cc(C(=O)NCc2ccccc2)c2ccccc21 [CBK200196] | – | 90.0407
CNC(=O)Oc1ccccc1/C=N/N(C)C [CBK023194] | 43.562 | –
C=CCSc1nnc(OC(=O)N(C)C)n1-c1ccc(Cl)cc1 [CBK004817] | 98.5839 | –
O=C(Cn1cc(C(=O)c2ccco2)c2ccccc21)NCCc1c[nH]c2ccccc12 [CBK267509] | 123.832 | –
CC(=O)Nc1ccc(OC(=O)N2CCCCC2)cc1 [CBK090124] | 70.9572 | –
CN(C(=O)c1ccc(Cl)c(Cl)c1)[C@H]1CCC[C@H]1N1CCCC1 [CBK003411C] | 0.7323 | –
O=C(N/N=C1/CN2CCC1CC2)c1cccc(O)c1 [CBK262188C] | 102.6 | –
CN(Cc1ccc(-c2ccc(S(C)(=O)=O)cc2)nc1)C1CCN(C(=O)Oc2ccc(F)cc2)CC1 [CBK166097] | 95.5897 | –
CC1=CC(C)C(COC(N)=O)(COC(N)=O)C(C)C1 (stereo not shown) [CBK020974] | 88.2997 | –
CC(C)NC(=O)Cn1cc(C(=O)COc2ccccc2)c2ccccc21 [CBK268317] | 109.015 | –
CC[C@H](N)Cn1nc(-c2cccs2)oc1=O [CBK282393] | 92.7768 | –
CNC(=O)Oc1cccc2cccnc12 [CBK015609] | 64.18 | –
Cc1ccc(Cl)c(OC(=O)NCCOC(=O)NO)c1 [CBK288417] | 99.755 | –
O=C(O)c1cc(N2C(=O)c3cccc4c([N+](=O)[O-])ccc(c34)C2=O)cc(N2C(=O)c3cccc4c([N+](=O)[O-])ccc(c34)C2=O)c1 [CBK262119] | 106.215 | –
O=C1CCCc2c1c1cccc(C(=O)O)c1n2Cc1ccccc1 [CBK002365] | 81.0671 | –
CN(C)C(=O)c1ccc(Cn2nc(C(=O)NC3CC3)c3ccccc32)cc1 [CBK047720] | 102.146 | –
O=C(Nc1ccc(NC(=O)c2cccc([N+](=O)[O-])c2)c(Cl)c1)c1cccc([N+](=O)[O-])c1 [CBK261196] | 101.174 | –
